# The other results are listed elsewhere or left out.
# Biological target: T1, OsWOX13 (Oryza sativa, UniProt Q5QMM3 1-267)
# T1 sequence: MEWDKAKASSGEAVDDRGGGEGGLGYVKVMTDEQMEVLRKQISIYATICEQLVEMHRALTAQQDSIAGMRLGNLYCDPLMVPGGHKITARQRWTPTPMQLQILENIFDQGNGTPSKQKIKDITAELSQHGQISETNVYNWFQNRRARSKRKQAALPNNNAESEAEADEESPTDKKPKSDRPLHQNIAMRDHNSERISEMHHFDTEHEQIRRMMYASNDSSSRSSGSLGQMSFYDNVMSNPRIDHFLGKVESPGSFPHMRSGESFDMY
# Assay: protein-binding microarray (RPBM); PBS, 2% BSA, 51.3 ng/ul salmon testes DNA, 50 uM zinc acetate, 200 nM TF, 25 C, 1 h; high values mean tight binding
# Details: protein: recombinant; tags: N-terminal polyhistidine and DsRed monomer fusion (pET32a); label: CyDye5-dUTP incorporated in the synthesized complementary strand; 3' TTTTT single-stranded linker to array surface; dsDNA, one strand shown
# Method in brief: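 Binding signal here means per-feature fluorescence intensity in arbitrary units. The values were read on an Axon 4000B scanner after a custom Agilent array, double-stranded by primer extension with Cy5-dUTP, was incubated with 200 nM protein at 25 °C for 1 h in PBS with 2% BSA, salmon testes DNA and 50 µM zinc acetate, then washed. The proteins were transcription factors with an N-terminal polyhistidine tag and DsRed, expressed in E. coli BL21-CodonPlus and purified on Ni–NTA.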
row,Sequence,binding signal
1,GTCACATCGTTCCAATTTCAATCAAAATTTCAATTTTAGCCGGAGTCACCTAGTGCAG,4070 fluorescence intensity (a.u.)
2,ATTTAATTATTACGAACACAACGGTGTAATTGGATCGTAGCGGAGTCACCTAGTGCAG,33800 fluorescence intensity (a.u.)
3,ATTAGACAAACAATAAGATTATTGGTAAAGAAAGTTGCAGCGGAGTCACCTAGTGCAG,4230 fluorescence intensity (a.u.)
4,TTCTAATTAGTGTCCAAACATCTGATGTGACAGGGACTAACGGAGTCACCTAGTGCAG,33000 fluorescence intensity (a.u.)
5,CCTCCCCTTTCATCGTCTCCAATCACCATCATCTGCACGTCGGAGTCACCTAGTGCAG,3310 fluorescence intensity (a.u.)
6,GGATGTAGCTTGATTGCTCGCCGTACGTCGTCGACATGTTCGGAGTCACCTAGTGCAG,8620 fluorescence intensity (a.u.)
7,ATTAATTAACGGTGTTTTGCATGCGAGTGCGACGCCGCAGCGGAGTCACCTAGTGCAG,21100 fluorescence intensity (a.u.)
8,CCTGATGAAAATAGACTCGGGCTTAGACTCTGCCGGTCTGCGGAGTCACCTAGTGCAG,19100 fluorescence intensity (a.u.)
9,TGGCTAACCATATAGCTTAGCCAGTGGGATGGAGATGCTGCGGAGTCACCTAGTGCAG,17700 fluorescence intensity (a.u.)
10,TGAAGTAATTGCACACAATAAGAAAATGGACTAAACATCACGGAGTCACCTAGTGCAG,6750 fluorescence intensity (a.u.)
11,AAATTCTAACAAGTAGTTAATTGATAGATAGCTTATGAGACGGAGTCACCTAGTGCAG,42300 fluorescence intensity (a.u.)
12,TGGTATATTAATTATTTCCTTTCCTTCCTTTCCCTTCCGACGGAGTCACCTAGTGCAG,5690 fluorescence intensity (a.u.)
13,TAAAATAATTTATAATATAAAACAGATGTGGTATTATATCCGGAGTCACCTAGTGCAG,15100 fluorescence intensity (a.u.)
14,CTTGTTACTAATGGGGCCAATCATGAAAGAAGTGCGGGAGCGGAGTCACCTAGTGCAG,8990 fluorescence intensity (a.u.)
15,AGTTTGTCATCATTGACTTTATTTGAAAGAGGCAAGGCCTCGGAGTCACCTAGTGCAG,4870 fluorescence intensity (a.u.)
16,CTGATGTGATGACGCCATTTCGCTGACGATTTGTGCCGTTCGGAGTCACCTAGTGCAG,6310 fluorescence intensity (a.u.)
17,AATCAGTAATCACTGAGTCGTTACTGCTGCTTTCCGGTTGCGGAGTCACCTAGTGCAG,3800 fluorescence intensity (a.u.)
18,TATTATCAAATCATGGCGTAATTAGGCTCAAAAGATTCGTCGGAGTCACCTAGTGCAG,15000 fluorescence intensity (a.u.)
19,TTGAGATATAATTGCTACGTAAGTGCCACGTCAATGCCACCGGAGTCACCTAGTGCAG,10300 fluorescence intensity (a.u.)
20,CAAATTTTACAAAATTGCATGATCGAAGCAAACTTATAGCCGGAGTCACCTAGTGCAG,3320 fluorescence intensity (a.u.)
21,ATCTATATATTAACAATTAATTAATTAAGTACATGCATTTCGGAGTCACCTAGTGCAG,15400 fluorescence intensity (a.u.)
22,GGTTTCTAATTTGACAATTCATTTGAAAGCAATTGATAAACGGAGTCACCTAGTGCAG,11200 fluorescence intensity (a.u.)
23,TGTTAATTTGCGGTTAATGGAGTAAACAAGGATGTATTTGCGGAGTCACCTAGTGCAG,44700 fluorescence intensity (a.u.)
24,TAACAGATTAAATCTTGTTAAACTAGGATTAGCTTCGGTTCGGAGTCACCTAGTGCAG,7480 fluorescence intensity (a.u.)
25,GTTAATTGTAACTGAATTTCACCGGATGGAGTAAGAATAGCGGAGTCACCTAGTGCAG,23600 fluorescence intensity (a.u.)
26,TTAATTTTGTGCAAATCATCGAGCTGGGTGTTCAGTATTTCGGAGTCACCTAGTGCAG,4610 fluorescence intensity (a.u.)
27,TTGTGAGATGATGATTTAACATGCTTGTATTTTAAAAGCTCGGAGTCACCTAGTGCAG,4200 fluorescence intensity (a.u.)

row,Sequence,binding signal
1,ATTTTAAAAGGTTTGATTAGGAAAGAAGTCAGAACGAATTCGGAGTCACCTAGTGCAG,4620 fluorescence intensity (a.u.)
2,GTTACTGCATGATTTGCTAGATGTATTTTATGACAACAGACGGAGTCACCTAGTGCAG,12900 fluorescence intensity (a.u.)
3,TCTGATTTATAATGTCATAGGATCCGGATAGTATCATAGGCGGAGTCACCTAGTGCAG,30800 fluorescence intensity (a.u.)
4,ATATTCTGTTGATTATTCTTTATTGCAGGTGTATTCTTGACGGAGTCACCTAGTGCAG,3660 fluorescence intensity (a.u.)
5,AATGATTGACAATACTTAGATTTCTTCCCTTAATTACATCCGGAGTCACCTAGTGCAG,54400 fluorescence intensity (a.u.)
6,TCTGTGATTTGATGTTTGCCTGTGTTGTGTGCAAAGTTTTCGGAGTCACCTAGTGCAG,23900 fluorescence intensity (a.u.)
7,GACGCAGATGATTACAAGACATTTACTGCTTTTCTGCCTACGGAGTCACCTAGTGCAG,7090 fluorescence intensity (a.u.)
8,CTAATTAGTCCATGATTAACCATAAGTGCTACAGTAACCCCGGAGTCACCTAGTGCAG,36900 fluorescence intensity (a.u.)
9,GTTAAATTGGTTTTGGTTGGATCCCTCTATCCGGTATCTGCGGAGTCACCTAGTGCAG,39600 fluorescence intensity (a.u.)
10,TGATTACTGCATTGATCCGACCAATCAATTCGAAGCATACCGGAGTCACCTAGTGCAG,3790 fluorescence intensity (a.u.)
11,CTATTTTCTAGTAATTAATTATTCCAAAATTAGAGATACACGGAGTCACCTAGTGCAG,15500 fluorescence intensity (a.u.)
12,AAACTAATTAAGAACTGTACCATTGGATCATATATGAGGCCGGAGTCACCTAGTGCAG,20400 fluorescence intensity (a.u.)
13,ATTTTAAATAGATAAATGAGGAGAGAGAAAGGCAGCGGGCCGGAGTCACCTAGTGCAG,8150 fluorescence intensity (a.u.)
14,ATAAAGCATAATTGATGTTACCTCTTTCTCTTCTGTGACCCGGAGTCACCTAGTGCAG,21400 fluorescence intensity (a.u.)
15,TGGTTAATTTAGCTTCTCCCCTTTCTCGTGTCCTTAGATTCGGAGTCACCTAGTGCAG,10200 fluorescence intensity (a.u.)
16,CAACATTGCATTGATTGTAGTATTATTATGAGAAGATTAGCGGAGTCACCTAGTGCAG,9220 fluorescence intensity (a.u.)
17,GTCTAGATTTATTGCATTGACATAGATAGCATGCATGGCTCGGAGTCACCTAGTGCAG,14500 fluorescence intensity (a.u.)
18,AAAATTAGAGTCCAATCATTCTACTGATTAGAACTTACACCGGAGTCACCTAGTGCAG,34600 fluorescence intensity (a.u.)
19,TATATGTAATTACACTGTAACTTGCATGTAACTACAGTGTCGGAGTCACCTAGTGCAG,22700 fluorescence intensity (a.u.)
20,TTGAATTGGTGCATAAACAAACATTTTGCCTTCTCCAGGTCGGAGTCACCTAGTGCAG,4470 fluorescence intensity (a.u.)
21,ATCCTTAATATGACATGATTAATGGATATTAGATTGTACCCGGAGTCACCTAGTGCAG,20300 fluorescence intensity (a.u.)
22,TGGATTGAAAATTGTATTGATCAAGCAACAACAGCCACCTCGGAGTCACCTAGTGCAG,18800 fluorescence intensity (a.u.)
23,TTGTATAAATTGGCTATTAGATTGGCTATAGATTAATTGGCGGAGTCACCTAGTGCAG,58900 fluorescence intensity (a.u.)
24,TATAGTAAATTTAGTATTGAATCTATAGTTGTTAAATATGCGGAGTCACCTAGTGCAG,5960 fluorescence intensity (a.u.)
25,CACAAAGCATCAATCAAACAATTGATACAACTCTGATAGTCGGAGTCACCTAGTGCAG,20100 fluorescence intensity (a.u.)
26,AGTATTAAACATAGACTAATCATAAAACACATTCCATAACCGGAGTCACCTAGTGCAG,3260 fluorescence intensity (a.u.)
27,AGCAGTAATTTTGAGTTAACAAAGCAAGTTTAGAGTTTTGCGGAGTCACCTAGTGCAG,14000 fluorescence intensity (a.u.)

# Source: publication PMC7819943, “Rice protein-binding microarrays: a tool to detect cis-acting elements near promoter regions in rice”
